This note sets out measurements from PubChem BioAssay AID1963576 (National Center for Advancing Translational Sciences (NCATS), 2024).

About 60 (0.1%) of roughly 46,000 compounds were called active. Roughly 3% stayed inconclusive and do not appear here. Calls follow the shape of the dose curve; as a rule, active = well fitted inhibition curve with a large enough effect; inconclusive = small, poorly fitted or top-dose-only effect; inactive = no such curve, though single readings can be large or run the other way. Some of the results follow.

The nature of this assay: Primary qHTS assay for Inhibitors of ovarian cancer metastasis using an organotypic tumor microenvironment (TME) model. Also: nearly all actives have a fitted effect of over 65% in size.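 As to activity change, negative = inhibition: plate controls were DMSO wells for no effect and tomatine positive control wells for full effect.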 Particulars: SKOV3ip1-GFP adhesion/invasion on 3D omental model, fluorescence; series mostly up to 45.8 µM; activity change, negative = inhibition: at the top concentration. The method, boiled down: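 Primary human omental fibroblast/mesothelial 3D culture pre-formed 48 h. SKOV3ip1-GFP cells added with compounds (0.36-46 umol/L), incubated 2 h RT/16 h 37 C, fixed; GFP cells quantified at 488/509 nm.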
(In general: qHTS replaces the single test concentration by a dilution series.)
Turning to `Cc1ccc(Cn2cc(S(=O)(=O)c3ccc(Cl)cc3)c(=O)c3cc4c(cc32)OCO4)cc1`, the “activity change, negative = inhibition” value was inactive: 1.66%.
For `COc1cc(NC(=O)Cn2nnnc2-c2ccccc2F)cc(OC)c1OC`, the molecule was called inactive.
With `Cc1ccc(CNC(=O)CCc2nc3cccnc3n2Cc2ccccc2)cc1`, the “activity change, negative = inhibition” value was inactive: 5.59%.
On to `CC(=O)Nc1ccc(NC(=O)C(NS(=O)(=O)c2ccc(Br)s2)c2ccccc2)cc1` (configuration not stated), for which the “activity change, negative = inhibition” value is inactive: 1.15%.
For the molecule `O=C(CCNS(=O)(=O)c1ccc2c(c1)CCN2C(=O)C1CC1)N1CCN(c2cccc(C(F)(F)F)c2)CC1`, the molecule was classed as inactive.
As to `COCc1oc2ccc(NS(=O)(=O)c3ccc(C)cc3)cc2c1C(=O)OC`, the “activity change, negative = inhibition” value was inactive: -7.03%.
The same measure, in the same setting: in the case of `CCCc1ccc(OC(C)c2nc(-c3ccc(-n4cccc4)cc3)no2)cc1` (configuration not stated) it was inactive: 0.637%.
The same measure, in the same setting: under `CN(c1ncccc1CNc1nc(Nc2ccc3c(c2)CC(=O)N3)ncc1C(F)(F)F)S(C)(=O)=O` stands inactive: 24.2%.
Same read-out and setting: under `CC(=O)N1CCc2cc(S(=O)(=O)NC(Cc3ccccc3)C(=O)NCc3ccccc3Cl)ccc21` (configuration not stated) stands inactive: 11.8%; under `COc1ccc(-c2cc3ccc(O)c(CN4CCCCC4C)c3oc2=O)cc1OC` (configuration not stated), inactive: -13.2%; under `CCOc1ccc2nc(N(Cc3cccnc3)C(C)=O)sc2c1`, inactive: 20.4%.
On to `O=C1CC(=O)Nc2cc(S(=O)(=O)Nc3ccc(F)cc3Cl)ccc2N1`, for which the “activity change, negative = inhibition” value is inactive: 32.5%.
Turning to `Cc1ccc(OCCSc2nc3ccc(NC(=O)c4ccco4)cc3s2)cc1`, the “activity change, negative = inhibition” value is inactive: -0.0696%.
The same measure, in the same setting: under `COc1ccc(CCNC(=O)Cn2c(-c3ccc(F)cc3)cc(C(C)=O)c2C)cc1OC` stands inactive: -5.08%.
As to `CCOC(=O)Cn1c(CN2CCN(c3ccc(OC)cc3)CC2)nc2c1c(=O)[nH]c(=O)n2C`, the “activity change, negative = inhibition” value was inactive: 4.4%.
On the same count and under the same terms, in the case of `Cc1cc(=O)n(Cc2c(F)cccc2Cl)c2c1c(C)nn2C` it was inactive: 0.978%.
With `Cn1c(=O)n(C)c2cc(N3CCOCC3)c(NS(=O)(=O)c3ccc(Cl)cc3)cc21`, the “activity change, negative = inhibition” value was inactive: 8.17%.
The same measure, in the same setting: under `Cc1ccc(-n2c(=O)c3c(cnn3C)n(CC(=O)Nc3cccc(C)c3)c2=O)cc1` stands inactive: 1.57%; under `COc1ccccc1N1CCN(C(=O)c2cc3c(-c4ccccc4F)nn(C)c3s2)CC1`, inactive: -7.06%.
`CCOC(=O)C1CCN(C(=O)CSc2n[nH]c(-c3ccc(OC)cc3)n2)CC1`: the “activity change, negative = inhibition” value is inactive: -9.05%.
Consider `COc1cc2ccccc2cc1C(=O)N1CCN(c2nc3c(F)cc(F)cc3s2)CC1`, for which the result was inactive.
Take `CCCC(=O)Nc1cc(-c2nnc3c4ccccc4c(C)nn23)ccc1C`: the “activity change, negative = inhibition” value is inactive: -4.65%.
Turning to `COc1ccc2c(c1)CC(C(=O)NCCc1ccc(S(N)(=O)=O)cc1)CO2` (configuration not stated), the “activity change, negative = inhibition” value is inactive: 9.8%.
Turning to `Cc1ccc(C)c(OC(=O)CSc2nnc(-c3cccs3)o2)c1`, the molecule was classed as inactive.
As for `Cc1cc(C)cc(NC(=O)c2cccc(C(=O)Nc3cc(C)cc(C)c3)c2)c1`, the “activity change, negative = inhibition” value was inactive: 1.86%.
Same read-out and setting: under `CSc1cccc(NC(=O)CN2C(=O)CCc3cc(S(=O)(=O)N4CCCCC4)ccc32)c1` stands inactive: -25.4%.
For `Cc1ccc(NC(=O)C(C)Sc2nc3c(c(=O)[nH]2)CCCC3)cc1Cl` (configuration not stated), the molecule was called inactive.
With `CCc1ccc(NC(=O)CCCc2nnc3n(CCCOC)c(=O)c4sccc4n23)cc1`, the result was inactive.
As for `COc1ccc(-n2c(=O)c3c(c4cc(OC)ccc4n3C)n(CC(=O)N3CCCC3)c2=O)cc1`, the “activity change, negative = inhibition” value was inactive: 18.5%.
For the molecule `CCOc1ccc(CNC(=O)C2CCCN(c3nn4cc(-c5ccc(F)cc5)nc4s3)C2)cc1` (configuration not stated), the “activity change, negative = inhibition” value was inactive: -0.579%.
As for `O=C(COc1ccccc1Cl)N(Cc1cccc(F)c1)C1CCS(=O)(=O)C1` (configuration not stated), the “activity change, negative = inhibition” value is inactive: 22%.
As for `CCOc1ccc(/C=C/c2nc(C#N)c(NCCCN(C)C)o2)cc1`, the “activity change, negative = inhibition” value is inactive: -7.36%.
On the same count and under the same terms, under `O=C(Cn1cnc2c(nc3n2CCCCC3)c1=O)Nc1cccc(C(F)(F)F)c1` stands inactive: 5.98%; under `CCc1ccc2oc(-c3ccc(NC(=O)c4cccc(Cl)c4Cl)cc3)nc2c1`, inactive: -6.88%; under `COC(=O)c1ccccc1NC(=O)Cn1c(=O)n(CCCC(=O)NCc2ccccc2Cl)c(=O)c2ccccc21`, inactive: 16.5%.
On the same count and under the same terms, under `CCOc1ccccc1NC(=O)CSc1ccc2nc(-c3ccccc3)cn2n1` stands inactive: -11.4%.
As for `COCCn1c(SCC(=O)c2ccc(F)cc2)nc2cc(C(=O)NC3CCCC3)ccc2c1=O`, the molecule was classed as inactive.
Consider `Cc1ccc(N2C(=O)CS(=O)(=O)C23C(=O)N(Cc2ccc(Cl)cc2)c2ccccc23)cc1C` (configuration not stated), for which the call was inactive.
For the molecule `COc1ccc(OC)c(NC(=O)Cn2c(=O)n(-c3ccc(Cl)cc3)c(=O)c3c(C)c(C)sc32)c1`, the “activity change, negative = inhibition” value is inactive: -2.61%.
`COc1ccc(C(=O)N(c2ccc(C)cc2)S(=O)(=O)c2ccc(C)cc2)cc1`: the “activity change, negative = inhibition” value is inactive: -4.59%.
Take `COc1ccc(Cl)cc1NC(=O)C1CCN(S(=O)(=O)c2ccc(F)cc2)CC1`: the “activity change, negative = inhibition” value was inactive: -9.2%.
As for `O=C1CC(c2ccc(F)cc2F)c2cc3c(cc2N1)OCO3` (configuration not stated), the “activity change, negative = inhibition” value was inactive: -0.353%.
Still for that read-out and setting: in the case of `CCOc1cccc(C(=O)N(Cc2ccc(F)cc2)Cc2ccco2)c1` it was inactive: -4.05%; in that of `Cc1ccc(N2C(=O)CCSC23C(=O)N(Cc2ccc(F)cc2)c2ccccc23)cc1` (configuration not stated), inactive: 15.3%; in that of `Cc1ccc(NC(=O)c2c(C)nn(-c3ccccc3)c2-n2cccc2)c(Cl)c1`, inactive: -4.92%.
On the same count and under the same terms, under `CCOC(=O)c1c(NC(=O)COc2ccc(C(C)(C)C)cc2)sc2c1CCCC2` stands inactive: -28%.
As to `Cc1ccc(Cc2nc3ccccc3nc2SCC(=O)NCc2ccccc2Cl)cc1`, the outcome was inactive.
